Here are results for 60 compounds from PubChem BioAssay AID1508624 (National Center for Advancing Translational Sciences (NCATS), 2021).

The campaign covered roughly 48,000 compounds. About 120 (0.25%) were called active. Not shown: some 4% with an inconclusive outcome. The call rests on the fitted dose curve; in most records, active means well fitted activation curve with a large enough effect; inconclusive means small, poorly fitted or top-dose-only effect, or another doubt; inactive means no such curve, though single readings can be large or run the other way. The entries are a selection whose mix differs from that of the whole data set. Where no call is shown, the source filed none.
Potency means the concentration at half of the fitted maximal effect.

The nature of this experiment: Primary qHTS for Identification of Small Molecule Activators of Huntingtin-Antisense Promoter Activity. Further: nearly all actives have a fitted effect of over 55% in size. As to conditions: HEK293 HTT-AS promoter firefly luciferase reporter, 24 h; activity change, positive = activation: at 57.5 µM (top of the series), percent change from vehicle, -100% = no light. In outline:
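HEK293 cells carrying firefly luciferase reporters were seeded at 2,500 per well in Opti-MEM and cultured for 24 h. They were then treated with compounds at up to 57.5 uM final for 24 h at 37 degrees C before Dual-Glo luminescence readout.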
Background: In qHTS, concentration-response curves come from the screen itself.
Regarding `CCOC(=O)N1CCC(NC(=O)c2cnn(-c3ccc(C)cc3)c2-n2cccc2)CC1`, the activity change, positive = activation is 1.57%.

Regarding `Cc1c(Cl)cccc1NC(=O)c1cc(-c2cccc(Cl)c2)on1`, the activity change, positive = activation amounted to 11.9%.

On to `COC(=O)c1cc2oc3ccccc3c2n1CC(=O)Nc1cc(OC)cc(OC)c1`, for which the activity change, positive = activation worked out at 5.9%.

Consider `COc1ccc(C(=O)NCC(c2cccs2)S(=O)(=O)c2ccc(F)c(C)c2)cc1` (stereo not given), for which the “activity change, positive = activation” value is inactive: -20.5%.

Take `Fc1cccc(Cl)c1CNc1n[nH]c(-c2ccco2)n1`: the Potency is active: 5.01 µM.

Consider `Cc1ccc(N2CCN(S(=O)(=O)c3ccc4oc(=O)c5ncn(C)c5c4c3)CC2)c(C)c1`, for which the activity change, positive = activation was -11.6%.

Take `O=S(=O)(Nc1cccc(-c2ccc(N3CCCCCC3)nn2)c1)c1ccccc1`: the activity change, positive = activation was 32.2%.

As for `CCCCN1C(=O)CN(C2CCCCCC2)C(=O)C1c1ccc(OC(C)C)c(OC)c1` (stereo not given), the activity change, positive = activation was determined as 14.1%.

In the case of `Cc1ccc(-n2ccnc(NCCc3ccc(S(N)(=O)=O)cc3)c2=O)c(C)c1`, the “activity change, positive = activation” value is inactive: -24.8%.

Regarding `COc1cccc(CN2C(=O)N(c3ccc(C)cc3)C(=O)C2CC(=O)Nc2cc(OC)cc(OC)c2)c1` (stereo not given), the activity change, positive = activation was -12.7%.

`Cc1cccc(NC(=O)c2cc3c(=O)n(Cc4ccco4)ccc3nc2C)c1`: the activity change, positive = activation was -13.7%.

As to `O=C1C(c2ccc(F)cc2)N(CCc2ccccc2)C(=O)CN1C1CCCCCC1` (stereo not given), the activity change, positive = activation came out at 19.8%.

On to `COc1ccc(F)cc1S(=O)(=O)Nc1cccc(-c2ccc(N3CCC(C)CC3)nn2)c1`, for which the activity change, positive = activation was 31.3%.

Turning to `COc1cc(Cl)c(C)cc1NC(=O)CC(c1ccc(F)cc1)N1Cc2ccccc2C1=O` (stereo not given), the activity change, positive = activation is -5.5%.

As to `CC(=O)c1cccc(NC(=O)CSc2nc3ccccc3nc2Cc2ccc(F)cc2)c1`, the activity change, positive = activation turned out to be 2.74%.

In the case of `COc1ccc(OC)c(S(=O)(=O)Nc2cccc(-c3ccc(N4CCCCC4)nn3)c2)c1`, the activity change, positive = activation worked out at 13.2%.

On to `CC(C)(C)c1ccc(C(=O)NCC(c2ccc(Cl)cc2)N2CCOCC2)cc1` (stereo not given), for which the “activity change, positive = activation” value is inactive: -34.2%.

As for `CCc1ccc(S(=O)(=O)Nc2cccc(-c3ccc(N4CCOCC4)nn3)c2)cc1`, the activity change, positive = activation is 6.97%.

With `COc1ccc2c(c1)cc1c(=O)n(CC(=O)NC3CC3)nc(C)n12`, the activity change, positive = activation was -4.65%.

For `O=[N+]([O-])c1cc(-c2nc(-c3ccccc3)no2)ccc1NC1CCCCC1`, the “activity change, positive = activation” value is inactive: -14.5%.

Regarding `COc1ccc(C2c3cc(OC)c(OC)cc3CC(=O)N2c2ccc(C)c(F)c2)cc1` (stereo not given), the activity change, positive = activation was -37.6%.

Take `COc1ccc(C)cc1NS(=O)(=O)c1c(C(=O)N2CCC(C)CC2)c(C)n(C)c1C`: the “activity change, positive = activation” value is inactive: -11.3%.

For the compound `CCOc1c(Br)cc(C2CC(=O)Nc3cc4c(cc32)OCO4)cc1OC` (stereo not given), the “activity change, positive = activation” value was inactive: -38.2%.

On to `Cc1ccc(C)c(N2CCN(CCCNC(=O)c3cnn(-c4ccc(F)cc4)c3C3CCN(C(=O)OC(C)(C)C)CC3)CC2)c1`, for which the “activity change, positive = activation” value was inactive: -1.56%.

For `CCOc1ccc(OCC)c(NC(=O)c2cc3ccccn3n2)c1`, the activity change, positive = activation is 30.6%.

Consider `CN(C(=O)CSc1nnc(COc2ccccc2)o1)c1ccccc1`, for which the activity change, positive = activation was -14.9%.

On to `COC[C@H](NC(=O)c1cnc(C)s1)C(=O)N[C@@H](COC)C(=O)N[C@@H](Cc1ccccc1)C(=O)[C@@]1(C)CO1`, for which the “activity change, positive = activation” value is inactive: -63.5%.

Take `COC(=O)c1ccccc1NC(=O)c1nc(-c2ccc(Cl)cc2)n2c1CCCCC2`: the activity change, positive = activation turned out to be 8.84%.

`CC(C)(C)C1CCc2onc(C(=O)Nc3sc4c(c3C#N)CCCC4)c2C1` (stereo not given): the activity change, positive = activation is -1.79%.

Regarding `Cc1cc(C)c(OCCOCCn2c(-c3ccc(Cl)cc3)nc3ccccc3c2=O)c(C)c1`, the activity change, positive = activation amounted to 40.3%.

Turning to `Cc1ccc(C2CCN(C(=O)c3cnn(-c4ccc(C)c(C)c4)c3C3CCN(C(=O)OC(C)(C)C)CC3)C2)cc1` (stereo not given), the “activity change, positive = activation” value is inactive: -2.62%.

For the compound `Cc1ccc(Cn2c(=O)c3cccnc3n(CC(=O)Nc3cc(Cl)ccc3C)c2=O)cc1`, the “activity change, positive = activation” value is inactive: 12.6%.

Regarding `Cc1cc(Cl)ccc1-n1c(CCC(=O)O)ccc1-c1cccs1`, the activity change, positive = activation is -5.12%.

As to `CCc1c(C)c2ccc(O)c(CN3CCN(c4cc(Cl)ccc4C)CC3)c2oc1=O`, the activity change, positive = activation was -1.76%.

As to `COc1cccc(CN2C(=O)CN(C3CCCCC3)C(=O)C2c2ccc(OC(C)C)c(OC)c2)c1` (stereo not given), the activity change, positive = activation was -1.64%.

As to `CC(C)N(Cc1ccccc1)C(=O)c1nc(-c2ccc(Cl)cc2)n2c1CCCCC2`, the activity change, positive = activation was -33.8%.

Regarding `CCN1CCN(Cc2c(O)ccc3oc(C)c(C(=O)Nc4cccc(Cl)c4C)c23)CC1`, the activity change, positive = activation is -5.93%.

Regarding `CCOC(=O)c1ccc(N2CCN(c3cc(C)ccc3C)CC2)c(NC(=O)Nc2ccc(Cl)cc2)c1`, the activity change, positive = activation was -9.15%.

With `COc1cc(OC)c(NS(=O)(=O)c2ccc3c(c2)CCCN3C(C)=O)cc1Cl`, the “activity change, positive = activation” value is inactive: -22.9%.

`COc1ccc(-c2nc(SCCOc3ccccc3Cl)n3[nH]c(=O)cc3n2)cc1`: the activity change, positive = activation worked out at 15.3%.

For the compound `Cc1ccc(Nc2nc3ccccc3c3nncn23)c(Cl)c1`, the activity change, positive = activation was -1.22%.

For the compound `O=C(CC1C(=O)N(c2ccccc2)C(=O)N1Cc1ccc(F)cc1)Nc1cccc(F)c1` (stereo not given), the activity change, positive = activation is -17%.

In the case of `CCOC(=O)c1cccc(NC(=O)c2cc3ccccn3n2)c1`, the activity change, positive = activation is -15.1%.

Consider `COC(=O)c1cc2oc3ccccc3c2n1CC(=O)Nc1ccc(Cl)cc1F`, for which the activity change, positive = activation worked out at 41.2%.

Take `CCCN1CCN(CCCNC(=O)c2ccc3c(c2)sc2nc(-c4ccc(C)cc4)cn23)CC1`: the “activity change, positive = activation” value was inactive: -1.44%.

Regarding `CC1CCC(N2CC(=O)N(C3CCCC3)C(c3ccc(Cl)cc3)C2=O)CC1` (stereo not given), the activity change, positive = activation was -8.84%.

For `CCN1CCN(Cc2c(O)ccc3oc(C)c(C(=O)Nc4ccc(OC)c(Cl)c4)c23)CC1`, the activity change, positive = activation is -1.86%.

Take `Cc1cccc(N2CCN(S(=O)(=O)c3ccc4oc(=O)c5ncn(C)c5c4c3)CC2C)c1` (stereo not given): the activity change, positive = activation amounted to 1.03%.

For `COc1ccc(N(C(=O)COc2c(C)cccc2C)S(=O)(=O)c2ccc(Cl)cc2)cc1`, the activity change, positive = activation was -33.4%.

As for `Cc1c(NC(=O)c2cc(-c3cccc(Cl)c3)on2)c(=O)n(-c2ccccc2)n1C`, the activity change, positive = activation was determined as 3.95%.

With `CC(=O)OC(COc1ccccc1)Cn1cnc2cc(C)c(C)cc21` (stereo not given), the activity change, positive = activation was -22%.

As for `Cc1cc2oc(C(=O)Nc3sc4c(c3C(=O)NCC3CCCO3)CCC4)cc(=O)c2cc1C` (stereo not given), the “activity change, positive = activation” value is inactive: -14.5%.

Turning to `O=C(Nc1ccc(N2CCN(CCOc3ccc(Cl)cc3)CC2)c(C(=O)O)c1)c1ccc(F)cc1`, the “activity change, positive = activation” value is inactive: -24.7%.

Consider `CCCOc1cccc(C(=O)Nc2ccc(-c3nc4ccccc4s3)c(Cl)c2)c1`, for which the “activity change, positive = activation” value was inactive: 10.9%.

For `C=C(C)CSc1nc2sc3c(c2c(=O)n1CCCC)CCCC3`, the activity change, positive = activation worked out at 8.23%.

With `COc1ccc2c(c1)CCc1c(C(=O)Nc3ccccc3C(F)(F)F)noc1-2`, the activity change, positive = activation stood at 21.9%.

For the compound `CC(C)Oc1ccc(CNC(=O)Cn2c(=O)oc3ccccc32)cc1`, the activity change, positive = activation is -6.36%.

In the case of `Cc1nn(Cc2ccc(Cl)cc2)c(C)c1NC(=O)c1noc2c1CCc1ccccc1-2`, the activity change, positive = activation was -39%.

Take `c1ccc(-c2nnc(CN3CCN(c4ccccc4)CC3)o2)cc1`: the activity change, positive = activation is -9.15%.

As to `COc1cccc(-c2cc(C(=O)Nc3ccn(Cc4ccc(C)cc4)n3)no2)c1`, the activity change, positive = activation worked out at 1.03%.
